The list shows a part of the results. The exact form of the protein is not confirmed.

In this assay the target is GST-SBP-ILF3 (Homo sapiens) (UniProt Q12906). Put plainly: targeted RNA Bind-n-Seq. As to conditions: RBNS binding buffer: 25 mM Tris pH 7.5, 150 mM KCl, 3 mM MgCl2, 0.1% Tween, 0.5 mg/mL BSA, 1 mM DTT; 27 nM protein, 750 pM RNA pool; temperature not stated; high values mean tight binding; sequences stand for … in GGGUAAAAGCGAGGUGAA…CGGGACAAGUAUUAUGGG
With “UUUUUUUUUUGAGACGGAAGCCGUCUCCUG [tttttgagapaired]”, the binding signal (log2 fold change) was determined as 0.5.
Turning to “GUGGUUGGUGUUGGCCUCUAACACCAAUCA [gtspaired]”, the binding signal (log2 fold change) was -0.463.
For “GUGUGGUGUGUUGGAACCUAACACACUACA [gtspaired]”, the binding signal (log2 fold change) was -0.616.
As to “GUGGUGUGUGUUGGAUUCUAACACAUACCG [gtspaired]”, the binding signal (log2 fold change) was -0.682.
On to “UUUUUUUUUUGAGACGGAUUCUGUCUCCUA [tttttgagapaired]”, for which the binding signal (log2 fold change) is -0.00478.
“UUUUUUUUUUGAGAGGGCCGCCCUCUCCUA [tttttgagapaired]”: the binding signal (log2 fold change) is 0.973.
Then “UUUUUUUUUUGAGAGGGCAACCCUCUCCGG [tttttgagapaired]”, with 0.218.
On to “UUUUUUUUUUGAGACUGCAUCAGUCUCCAG [tttttgagapaired]”, for which the binding signal (log2 fold change) worked out at 0.291.
For “UUUUUUUUUUGAGAGCGAUACGUUCUCCGG [tttttgagapaired]”, the binding signal (log2 fold change) turned out to be 0.121.
As to “GUGGUUGGUGUUGGCAUCUAACACCGACCA [gtspaired]”, the binding signal (log2 fold change) is -0.465.
With “UUUUUUUUUUGAGACGGCAACCGUUUCCUG [tttttgagapaired]”, the binding signal (log2 fold change) was determined as 0.593.
Then “UUUUUUUUUUGAGACGGAGACCGUCUUCUA [tttttgagapaired]”, with 0.351; and “UUUUUUUUUUGAGACUGAAACAGUCUCCUA [tttttgagapaired]”, with 0.116.
Then “UUUUUUUUUUGAGACCGAGACGGUCUUCUA [tttttgagapaired]”, with 0.354.
“UUUUUUUUUUGAGACGGUUUCCGUUUCCGG [tttttgagapaired]”: the binding signal (log2 fold change) came out at 0.589.
Then “GUGGUGUGUGUUGGUACCUAACACAUACCG [gtspaired]”, with -0.588; and “UUUUUUUUUUGAGAGCGAUACGUUCUCCUG [tttttgagapaired]”, with 0.5.
Regarding “UUUUUUUUUUGAGAGGGAGACCCUCUCCAG [tttttgagapaired]”, the binding signal (log2 fold change) was 0.226.
Regarding “UUUUUUUUUUGAGAGGGAAGCCCUCUCCAG [tttttgagapaired]”, the binding signal (log2 fold change) stood at 0.365.
As for “GUGGUGUGUGUUGGUCCCUAACACAUACUA [gtspaired]”, the binding signal (log2 fold change) is -0.652.
Turning to “GUGGUGUGUGUUGGCGUCUAACACACAUCG [gtspaired]”, the binding signal (log2 fold change) is -0.682.
“GUGUGGUGUGUUGGCAUCUAACACACUAUA [gtspaired]”: the binding signal (log2 fold change) is -0.78.
For “GUGUGUUGUGUUGGUGCCUAACACAGCGCA [gtspaired]” the value was -0.451.
For the sequence “UUUUUUUUUUGAGAUGGACGCCAUCUCCUG [tttttgagapaired]”, the binding signal (log2 fold change) worked out at 0.615.
For the sequence “UUUUUUUUUUGAGAUGGAUCCCAUCUCCUA [tttttgagapaired]”, the binding signal (log2 fold change) was 0.0779.
Take “GGUUGUGGUGUUGGCACCUAACACCGCAGC [gtspaired]”: the binding signal (log2 fold change) was -0.429.
For “GGUUGUGGUGUUGGAGUCUAACACCGCGAC [gtspaired]”, the binding signal (log2 fold change) was -0.149.
Then “UUUUUUUUUUGAGAACGUAACGUUCUUCUA [tttttgagapaired]”, with -0.0355.
On to “UUUUUUUUUUGAGAACGGGGCGUUCUUCUA [tttttgagapaired]”, for which the binding signal (log2 fold change) stood at 0.455.
For “UUUUUUUUUUGAGAAGGAGUCCUUCUCCUA [tttttgagapaired]”, the binding signal (log2 fold change) worked out at 0.0912.
Regarding “UUUUUUUUUUGAGACGGUUGCCGUCUCCAG [tttttgagapaired]”, the binding signal (log2 fold change) was 0.456.
As to “UUUUUUUUUUGAGAUGGGAACUAUCUCCUA [tttttgagapaired]”, the binding signal (log2 fold change) was determined as 0.467.
In the case of “UUUUUUUUUUGAGAUGGAGGCUAUCUCCUA [tttttgagapaired]”, the binding signal (log2 fold change) stood at 0.204.
For “GUGUGUGGUGUUGGUAUCUAACACCGCACG [gtspaired]” the value was -0.722.
For “GUGGUGUGUGUUGGCUUCUAACACAUACCG [gtspaired]”, the binding signal (log2 fold change) was -0.61.
Regarding “UUUUUUUUUUGAGAGGGGCUCCCUCUCCUA [tttttgagapaired]”, the binding signal (log2 fold change) came out at 0.539.
Then “UUUUUUUUUUGAGAAGGACUCCUUCUCCUA [tttttgagapaired]”, with 0.123; and “UUUUUUUUUUGAGAUGGACACCAUCUCCUG [tttttgagapaired]”, with 0.267; and “UUUUUUUUUUGAGACUGGUACAGUCUCCUG [tttttgagapaired]”, with 0.543.
Regarding “UUUUUUUUUUGAGACCGAUCCGGUCUCCGG [tttttgagapaired]”, the binding signal (log2 fold change) came to 0.43.
Turning to “UUUUUUUUUUGAGAGCGACACGCUCUCCAG [tttttgagapaired]”, the binding signal (log2 fold change) was 0.144.
Then “GUGUGGUGUGUUGGCCUCUAACACAUCACA [gtspaired]”, with -0.0659; and “UUUUUUUUUUGAGACUGAUACAGUCUCCUA [tttttgagapaired]”, with 0.388.
Regarding “UUUUUUUUUUGAGAUGGAUGCCAUUUCCAG [tttttgagapaired]”, the binding signal (log2 fold change) is 0.454.
With “UUUUUUUUUUGAGAUCGAAACGAUCUUCUA [tttttgagapaired]”, the binding signal (log2 fold change) was -0.577.
As to “UUUUUUUUUUGAGACGGGAUCCGUCUCCUA [tttttgagapaired]”, the binding signal (log2 fold change) is 0.213.
With “UUUUUUUUUUGAGAUCGGAACGAUCUCCAG [tttttgagapaired]”, the binding signal (log2 fold change) was -0.256.
With “UUUUUUUUUUGAGAUGGAUACUAUCUCCAG [tttttgagapaired]”, the binding signal (log2 fold change) is 0.378.
On to “UUUUUUUUUUGAGACCGGAGCGGUCUCCGG [tttttgagapaired]”, for which the binding signal (log2 fold change) was found to be 0.541.
As to “UUUUUUUUUUGAGAGCGUCACGCUCUCCUA [tttttgagapaired]”, the binding signal (log2 fold change) stood at 0.177.
For “GUGUGUGGUGUUGGCGCCUAACACCGCACG [gtspaired]” the value was -0.388; for “UUUUUUUUUUGAGAUGGACUCCAUCUCCUG [tttttgagapaired]”, 0.262; for “GUGUGUUGUGUUGGUUCCUAACACAGCACA [gtspaired]”, -0.644.
“UUUUUUUUUUGAGACGGUGACCGUCUUCUG [tttttgagapaired]”: the binding signal (log2 fold change) worked out at 0.552.
In the case of “GGUGUGUGUGUUGGCACCUAACACAUAUAC [gtspaired]”, the binding signal (log2 fold change) was -0.446.
Then “GGUGGUUGUGUUGGCAUCUAACACAAUCGC [gtspaired]”, with -0.466.
“UUUUUUUUUUGAGACUGAUACAGUCUCCAG [tttttgagapaired]”: the binding signal (log2 fold change) came out at 0.306.
Consider “UUUUUUUUUUGAGACUGUAACAGUUUUCUA [tttttgagapaired]”, for which the binding signal (log2 fold change) is 0.143.
“UUUUUUUUUUGAGAGCGGACCGCUCUCCUA [tttttgagapaired]”: the binding signal (log2 fold change) came to 0.55.
“GUUGUGUGUGUUGGAGCCUAACACACGCAG [gtspaired]”: the binding signal (log2 fold change) was -0.454.
For “UUUUUUUUUUGAGACGGCAACUGUCUCCAG [tttttgagapaired]” the value was 0.972.
For “UUUUUUUUUUGAGAUGGAGACCAUCUCCGG [tttttgagapaired]”, the binding signal (log2 fold change) came out at 0.246.
For the sequence “UUUUUUUUUUGAGAUGGUUUCCAUCUUCUG [tttttgagapaired]”, the binding signal (log2 fold change) came to 0.107.
Consider “GUUGUGUGUGUUGGAACCUAACACACGCGA [gtspaired]”, for which the binding signal (log2 fold change) was -0.578.
Then “UUUUUUUUUUGAGAUCGGAGCGAUCUCCUG [tttttgagapaired]”, with 0.66.

Source of the values: PMC5892938.
